{"source": "the supplement of paper PMC7826260", "note": "Some of the results follow. The data describe in vitro nicking of single-stranded DNA by Rep domains (1 h at 37 °C, 3 µM enzyme); the outer parts of the 90-letter strands are left off. The score is log2 (uncut reads / reads without enzyme); more negative means more cut, near 0 not cut, and no call is made. Because reads are shares of a total, they shift together; values above 0 arise when much of the pool is cut."}
{"system": "T1, Rep nickase domain of tomato golden mosaic virus", "T1 sequence (residues 1-124, tag not shown)": "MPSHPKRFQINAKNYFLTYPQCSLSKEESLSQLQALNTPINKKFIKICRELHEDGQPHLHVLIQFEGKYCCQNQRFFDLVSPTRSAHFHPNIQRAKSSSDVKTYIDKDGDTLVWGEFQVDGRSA", "assay": "uncleaved DNA left, log2 of reads against the no-enzyme library (log2 ratio); higher = less cleavage (more negative = more Rep cleavage of the k-mer); sequences stand for … in CTCGTCCG…ACCGGAGA", "description": "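A pool of 90-nt single-stranded DNAs with seven random bases just before the constant AC of the nick site (name = the seven bases) was cut by 3 µM recombinant His6-SUMO-tagged Rep nickase domain (300 nM DNA, 50 mM HEPES pH 8.0, 50 mM NaCl, 1 mM MnCl2, 1 h, 37 °C, three replicates). Uncut DNA was amplified and sequenced.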"}
{"sequence": "GCAGCCG", "uncleaved DNA left (log2)": -0.0209}
{"sequence": "ACTTGTA", "uncleaved DNA left (log2)": 0.029}
{"sequence": "TCTCTGG", "uncleaved DNA left (log2)": 0.187}
{"sequence": "TATTTAC", "uncleaved DNA left (log2)": 0.0599}
{"sequence": "TCTGGGT", "uncleaved DNA left (log2)": -0.16}
{"sequence": "GCACCGT", "uncleaved DNA left (log2)": -0.0613}
{"sequence": "AGCCGTC", "uncleaved DNA left (log2)": 0.0292}
{"sequence": "GGACCCG", "uncleaved DNA left (log2)": 0.00668}
{"sequence": "CCGTGAG", "uncleaved DNA left (log2)": -0.108}
{"sequence": "CTGAATA", "uncleaved DNA left (log2)": -0.00333}
{"sequence": "AGTCCGT", "uncleaved DNA left (log2)": -0.00375}
{"sequence": "ACATTCT", "uncleaved DNA left (log2)": -0.0256}
{"sequence": "AATATTA", "uncleaved DNA left (log2)": -0.115}
{"sequence": "CAGCCGT", "uncleaved DNA left (log2)": -0.121}
{"sequence": "TCTTTCT", "uncleaved DNA left (log2)": -0.108}
{"sequence": "GCAGGCG", "uncleaved DNA left (log2)": -0.0503}
{"sequence": "AAATGTC", "uncleaved DNA left (log2)": -0.537}
{"sequence": "GATACCT", "uncleaved DNA left (log2)": 0.18}
{"sequence": "GGTACGT", "uncleaved DNA left (log2)": 0.034}
{"sequence": "TGCGTTC", "uncleaved DNA left (log2)": 0.0113}
{"sequence": "GCCAATT", "uncleaved DNA left (log2)": 0.0518}
{"sequence": "GGATAGC", "uncleaved DNA left (log2)": 0.046}
{"sequence": "GCATAGA", "uncleaved DNA left (log2)": 0.138}
{"sequence": "GGCAGAC", "uncleaved DNA left (log2)": 0.122}
{"sequence": "AAAATTC", "uncleaved DNA left (log2)": 0.106}
{"sequence": "TCGCAGA", "uncleaved DNA left (log2)": -0.0103}
{"sequence": "CATTCAC", "uncleaved DNA left (log2)": -0.0311}
{"sequence": "TGGTTTA", "uncleaved DNA left (log2)": -0.0196}
{"sequence": "GATCGAC", "uncleaved DNA left (log2)": -0.0769}
{"sequence": "TTCCTAA", "uncleaved DNA left (log2)": 0.048}
{"sequence": "CAAAAAA", "uncleaved DNA left (log2)": 0.185}
{"sequence": "TAGGCAA", "uncleaved DNA left (log2)": 0.184}
{"sequence": "TCTAAGT", "uncleaved DNA left (log2)": 0.0204}
{"sequence": "CCGCGCT", "uncleaved DNA left (log2)": -0.11}
{"sequence": "GCACCTT", "uncleaved DNA left (log2)": 0.0187}
{"sequence": "AGCGGGC", "uncleaved DNA left (log2)": 0.0766}
{"sequence": "GTCAAAG", "uncleaved DNA left (log2)": 0.12}
{"sequence": "TCGCTCG", "uncleaved DNA left (log2)": 0.0322}
{"sequence": "ATCATTA", "uncleaved DNA left (log2)": -0.246}
{"sequence": "TCTGCGT", "uncleaved DNA left (log2)": -0.216}
